Laboratory results published in publication PMC6274018, “Design, Synthesis and Biological Evaluation of Novel Benzothiazole Derivatives as Selective PI3Kβ Inhibitors” (Molecules, 2016).

Tests used:
MES-SA cells = test: Anti-proliferative MTS assay, MES-SA; format: cell-based; settings: Homo sapiens, 72 h exposure
Protocol: (§1) All new synthesized compounds in this paper were screened for their anti-proliferative activity by MTS assay. A549, MCF7, SKOV3, AGS, MES-SA, HepG2, SW-620, PC-3, DU145 and MRC5 cells in this paper were all purchased from American Type Culture Collection (ATCC, Manassas, VA, USA), and were seeded into 96-well plates and cultured for 24 h. Subsequently, these cells were exposed to serial concentrations of compound for 72 h. Cells were then washed with PBS and fixed with CellTiter 96® (Promega) aqueous one solution reagent at 37°C for 3 h. Finally, record the absorbance at 490 nm using a 96-well plate reader. […] All of the compounds were tested two times in each of the cell lines and the results expressed as inhibition rates or IC50 (inhibitory concentration 50%) were the averages of two determinations.

MCF7 cells = test: Anti-proliferative MTS assay, MCF7; format: cell-based; settings: Homo sapiens, 72 h exposure
Protocol: as §1

PC-3 cells = test: Anti-proliferative MTS assay, PC-3; format: cell-based; settings: Homo sapiens, prostate tumor cells, 72 h exposure
Protocol: as §1

MRC5 cells = test: Anti-proliferative MTS assay, MRC5; format: cell-based; settings: human normal cell, 72 h exposure
Protocol: as §1

DU145 cells = test: Anti-proliferative MTS assay, DU145; format: cell-based; settings: Homo sapiens, DU-145, prostate tumor cells, 72 h exposure
Protocol: as §1

A549 cells = test: Anti-proliferative MTS assay, A549; format: cell-based; settings: Homo sapiens, 72 h exposure
Protocol: as §1

HepG2 cells = test: Anti-proliferative MTS assay, HepG2; format: cell-based; settings: Homo sapiens, 72 h exposure
Protocol: as §1

SW-620 cells = test: Anti-proliferative MTS assay, SW-620; format: cell-based; settings: Homo sapiens, 72 h exposure
Protocol: as §1

PI3Kβ = target: T1, PI3Kβ (Homo sapiens, UniProt P42338); test: ADP-Glo Lipid Kinase Assay, PI3Kβ; format: biochemical; settings: for inhibition at 1 µM: compound concentration 1 μM, read-out: % Inhib. of PI3Kβ kinase at 1 μM
T1 construct: purchased Promega Corporation #V1691

AGS cells = test: Anti-proliferative MTS assay, AGS; format: cell-based; settings: Homo sapiens, 72 h exposure
Protocol: as §1

SKOV3 cells = test: Anti-proliferative MTS assay, SKOV3; format: cell-based; settings: Homo sapiens, SK-OV-3, 72 h exposure
Protocol: as §1

PI3Kγ = target: T2, PI3Kγ (Homo sapiens, UniProt P48736); test: ADP-Glo kinase assay, PI3Kγ; format: biochemical; settings: average of two determinations
T2 construct: purchased Promega Corporation #V1691

PI3Kδ = target: T3, PI3Kδ (Homo sapiens, UniProt O00329); test: ADP-Glo kinase assay, PI3Kδ; format: biochemical; settings: average of two determinations
T3 construct: purchased Promega Corporation #V1691

PI3Kα = PI3Kα (Homo sapiens, UniProt P42336); test: ADP-Glo kinase assay, PI3Kα
mTOR = target: T4, mTOR (Homo sapiens, UniProt P42345); test: mTOR enzyme assay (LANCE ultra TR-FRET); format: biochemical; settings: average of two determinations
T4 construct: purchased Invitrogen

T1 sequence (P42338 whole entry): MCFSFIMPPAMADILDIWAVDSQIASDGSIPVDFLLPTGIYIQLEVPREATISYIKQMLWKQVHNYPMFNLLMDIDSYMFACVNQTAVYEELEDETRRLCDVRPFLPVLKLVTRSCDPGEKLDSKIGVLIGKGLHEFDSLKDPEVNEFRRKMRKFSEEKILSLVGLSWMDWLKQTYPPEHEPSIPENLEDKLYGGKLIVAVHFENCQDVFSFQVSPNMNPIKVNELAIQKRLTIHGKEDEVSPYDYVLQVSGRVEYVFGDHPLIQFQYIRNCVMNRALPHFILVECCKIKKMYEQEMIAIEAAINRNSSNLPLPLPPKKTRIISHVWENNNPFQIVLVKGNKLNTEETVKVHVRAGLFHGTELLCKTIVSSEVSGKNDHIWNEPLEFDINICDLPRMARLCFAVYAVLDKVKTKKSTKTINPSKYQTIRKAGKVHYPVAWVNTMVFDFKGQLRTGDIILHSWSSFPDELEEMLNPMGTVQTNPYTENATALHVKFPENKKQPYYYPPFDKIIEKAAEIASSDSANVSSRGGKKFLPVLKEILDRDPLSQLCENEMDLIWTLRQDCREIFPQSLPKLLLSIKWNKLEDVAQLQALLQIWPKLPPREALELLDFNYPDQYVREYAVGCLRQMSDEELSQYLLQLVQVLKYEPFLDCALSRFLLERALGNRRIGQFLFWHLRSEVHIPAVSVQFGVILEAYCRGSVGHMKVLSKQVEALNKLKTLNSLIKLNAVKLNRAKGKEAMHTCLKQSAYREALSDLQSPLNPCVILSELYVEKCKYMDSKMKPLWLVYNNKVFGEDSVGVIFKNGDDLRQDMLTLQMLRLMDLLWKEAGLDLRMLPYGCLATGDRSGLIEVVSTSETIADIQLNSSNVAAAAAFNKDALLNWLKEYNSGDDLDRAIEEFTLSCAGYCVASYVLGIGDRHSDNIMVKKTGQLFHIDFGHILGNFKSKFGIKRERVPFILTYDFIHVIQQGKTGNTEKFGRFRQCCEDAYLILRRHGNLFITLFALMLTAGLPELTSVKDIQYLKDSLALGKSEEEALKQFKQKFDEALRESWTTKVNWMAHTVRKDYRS
T1 sequence (P27986 whole entry partner): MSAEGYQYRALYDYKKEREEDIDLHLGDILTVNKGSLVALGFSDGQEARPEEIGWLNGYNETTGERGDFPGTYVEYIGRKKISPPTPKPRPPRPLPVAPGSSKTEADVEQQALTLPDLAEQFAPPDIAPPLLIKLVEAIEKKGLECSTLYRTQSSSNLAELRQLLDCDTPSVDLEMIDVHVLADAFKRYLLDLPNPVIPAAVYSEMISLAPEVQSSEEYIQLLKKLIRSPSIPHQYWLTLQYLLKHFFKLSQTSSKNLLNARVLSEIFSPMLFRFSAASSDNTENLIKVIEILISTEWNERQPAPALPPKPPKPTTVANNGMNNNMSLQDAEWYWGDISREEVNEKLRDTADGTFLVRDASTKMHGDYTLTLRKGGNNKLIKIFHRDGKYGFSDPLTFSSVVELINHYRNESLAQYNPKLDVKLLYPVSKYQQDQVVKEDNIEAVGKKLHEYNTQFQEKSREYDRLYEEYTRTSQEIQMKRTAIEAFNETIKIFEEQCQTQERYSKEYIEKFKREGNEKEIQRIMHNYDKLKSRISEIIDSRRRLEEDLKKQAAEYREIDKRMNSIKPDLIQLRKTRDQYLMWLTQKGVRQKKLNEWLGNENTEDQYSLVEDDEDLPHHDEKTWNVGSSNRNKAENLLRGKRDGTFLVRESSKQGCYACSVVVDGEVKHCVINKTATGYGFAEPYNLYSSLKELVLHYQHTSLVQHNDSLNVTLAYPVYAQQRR
UniProt P42336, sequence (P42336 whole entry): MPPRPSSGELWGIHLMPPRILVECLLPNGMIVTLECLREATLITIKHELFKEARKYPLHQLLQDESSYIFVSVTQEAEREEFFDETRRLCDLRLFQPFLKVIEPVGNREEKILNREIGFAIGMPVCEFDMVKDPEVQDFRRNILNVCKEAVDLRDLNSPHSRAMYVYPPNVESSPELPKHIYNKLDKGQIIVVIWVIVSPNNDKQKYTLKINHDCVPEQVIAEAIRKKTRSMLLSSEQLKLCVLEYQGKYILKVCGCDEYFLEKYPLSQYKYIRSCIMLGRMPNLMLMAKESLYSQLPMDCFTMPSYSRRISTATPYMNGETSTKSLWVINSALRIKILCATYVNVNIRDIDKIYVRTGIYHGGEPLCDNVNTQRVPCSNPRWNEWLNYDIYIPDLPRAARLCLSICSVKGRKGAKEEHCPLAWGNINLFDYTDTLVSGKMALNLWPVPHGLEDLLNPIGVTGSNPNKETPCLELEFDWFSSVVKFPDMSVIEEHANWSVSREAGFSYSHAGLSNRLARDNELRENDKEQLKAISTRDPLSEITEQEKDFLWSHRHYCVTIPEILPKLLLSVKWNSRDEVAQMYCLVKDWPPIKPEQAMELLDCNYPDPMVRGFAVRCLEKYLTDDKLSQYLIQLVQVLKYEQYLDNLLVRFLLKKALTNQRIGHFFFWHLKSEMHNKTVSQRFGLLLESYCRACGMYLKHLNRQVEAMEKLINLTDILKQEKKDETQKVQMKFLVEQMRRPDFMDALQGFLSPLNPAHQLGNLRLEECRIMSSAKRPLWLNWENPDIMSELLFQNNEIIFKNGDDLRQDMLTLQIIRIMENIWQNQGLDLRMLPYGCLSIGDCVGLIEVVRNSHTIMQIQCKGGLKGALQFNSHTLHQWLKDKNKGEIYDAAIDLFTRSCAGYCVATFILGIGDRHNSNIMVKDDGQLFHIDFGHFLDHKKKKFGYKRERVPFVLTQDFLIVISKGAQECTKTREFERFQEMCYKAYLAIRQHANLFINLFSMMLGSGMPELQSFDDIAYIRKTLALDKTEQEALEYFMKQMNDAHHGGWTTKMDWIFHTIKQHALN
UniProt P42336, sequence (P27986 whole entry partner): as the sequence (P27986 whole entry partner) above
T3 sequence (O00329 whole entry): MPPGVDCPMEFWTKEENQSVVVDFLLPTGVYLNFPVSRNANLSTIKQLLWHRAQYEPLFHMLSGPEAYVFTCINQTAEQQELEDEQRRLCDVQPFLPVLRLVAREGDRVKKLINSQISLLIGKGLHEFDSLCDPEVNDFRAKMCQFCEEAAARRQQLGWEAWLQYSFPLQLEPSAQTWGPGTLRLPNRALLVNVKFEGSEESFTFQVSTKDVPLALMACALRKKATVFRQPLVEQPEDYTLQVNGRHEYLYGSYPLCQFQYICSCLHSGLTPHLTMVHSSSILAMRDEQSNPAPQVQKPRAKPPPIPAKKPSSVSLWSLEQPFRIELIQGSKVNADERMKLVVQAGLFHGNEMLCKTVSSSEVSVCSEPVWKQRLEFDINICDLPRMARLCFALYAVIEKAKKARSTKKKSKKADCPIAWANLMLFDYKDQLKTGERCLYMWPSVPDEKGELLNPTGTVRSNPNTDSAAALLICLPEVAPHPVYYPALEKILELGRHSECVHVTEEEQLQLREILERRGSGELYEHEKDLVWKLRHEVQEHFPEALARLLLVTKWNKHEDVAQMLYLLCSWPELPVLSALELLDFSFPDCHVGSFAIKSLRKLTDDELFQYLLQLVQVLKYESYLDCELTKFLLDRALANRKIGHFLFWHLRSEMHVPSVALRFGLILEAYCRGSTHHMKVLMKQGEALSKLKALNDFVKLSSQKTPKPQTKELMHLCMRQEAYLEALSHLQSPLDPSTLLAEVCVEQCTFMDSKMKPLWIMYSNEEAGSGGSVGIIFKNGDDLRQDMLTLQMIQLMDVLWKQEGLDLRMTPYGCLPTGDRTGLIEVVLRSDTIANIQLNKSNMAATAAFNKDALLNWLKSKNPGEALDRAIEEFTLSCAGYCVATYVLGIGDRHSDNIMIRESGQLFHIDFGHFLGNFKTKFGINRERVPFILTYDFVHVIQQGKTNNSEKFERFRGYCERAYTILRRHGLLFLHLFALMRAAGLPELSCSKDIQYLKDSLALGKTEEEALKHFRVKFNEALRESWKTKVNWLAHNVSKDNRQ
T3 sequence (P27986 whole entry partner): as the sequence (P27986 whole entry partner) above
T2 sequence (P48736 whole entry): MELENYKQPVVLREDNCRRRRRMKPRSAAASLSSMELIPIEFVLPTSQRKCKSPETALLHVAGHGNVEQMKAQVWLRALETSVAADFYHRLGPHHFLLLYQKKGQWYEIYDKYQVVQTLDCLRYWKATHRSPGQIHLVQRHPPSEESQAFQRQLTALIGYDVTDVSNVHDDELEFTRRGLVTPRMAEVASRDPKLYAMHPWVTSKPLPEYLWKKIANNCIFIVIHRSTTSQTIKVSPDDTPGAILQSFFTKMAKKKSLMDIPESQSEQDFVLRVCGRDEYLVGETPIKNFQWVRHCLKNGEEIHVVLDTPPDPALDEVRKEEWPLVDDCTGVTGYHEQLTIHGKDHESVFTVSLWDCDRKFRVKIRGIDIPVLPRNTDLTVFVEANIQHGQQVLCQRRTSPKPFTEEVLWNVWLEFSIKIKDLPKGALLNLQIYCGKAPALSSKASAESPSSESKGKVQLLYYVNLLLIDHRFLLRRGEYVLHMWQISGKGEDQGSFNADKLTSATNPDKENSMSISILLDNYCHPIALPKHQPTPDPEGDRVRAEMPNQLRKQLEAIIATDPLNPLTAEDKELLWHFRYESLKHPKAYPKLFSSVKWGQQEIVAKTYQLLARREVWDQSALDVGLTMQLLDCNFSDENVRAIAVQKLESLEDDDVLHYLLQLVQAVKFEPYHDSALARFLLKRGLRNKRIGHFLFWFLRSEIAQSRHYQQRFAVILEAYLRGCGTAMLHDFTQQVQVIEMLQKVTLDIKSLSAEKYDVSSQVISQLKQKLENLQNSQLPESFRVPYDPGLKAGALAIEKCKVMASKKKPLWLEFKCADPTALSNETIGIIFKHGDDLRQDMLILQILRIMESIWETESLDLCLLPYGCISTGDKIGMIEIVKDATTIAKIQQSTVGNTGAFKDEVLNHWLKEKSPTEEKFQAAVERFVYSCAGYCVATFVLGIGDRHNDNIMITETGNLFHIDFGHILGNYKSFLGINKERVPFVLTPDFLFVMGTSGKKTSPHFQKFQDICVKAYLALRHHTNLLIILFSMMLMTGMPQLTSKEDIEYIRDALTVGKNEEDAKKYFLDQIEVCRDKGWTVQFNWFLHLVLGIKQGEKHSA

Compound	IC50 (MES-SA cells)	IC50 (MCF7 cells)	IC50 (PC-3 cells)	IC50 (MRC5 cells)	IC50 (DU145 cells)	IC50 (A549 cells)	IC50 (HepG2 cells)	IC50 (SW-620 cells)	inhibition at 1 µM (PI3Kβ)	IC50 (AGS cells)	IC50 (SKOV3 cells)	melting point	IC50 (PI3Kγ)	IC50 (PI3Kδ)	IC50 (PI3Kα)	IC50 (PI3Kβ; average of two determinations)	IC50 (mTOR)
CCNC(=O)Nc1ccc(-c2cc(N3CCOCC3)c3nc(N4CCOCC4)sc3c2)cc1 [Compound 1, 1-(4-(2,4-Dimorpholinobenzo[d]thiazol-6-yl)phenyl)-3-ethylurea]	12.3 µM	4.06 µM	15.3 µM	6.06 µM	9.5 µM	> 100 µM	> 100 µM	8.31 µM	52.1%	9.69 µM	21.2 µM	256 to 260 °C	–	–	–	–	–
CCNC(=O)Nc1ccc(-c2cc(N3CCOCC3)c3nc(N4CCN(C(C)C)CC4)sc3c2)cc1 [Compound 3, 1-Ethyl-3-(4-(2-(4-isopropylpiperazin-1-yl)-4-morpholinobenzo[d]thiazol-6-yl)phenyl)urea]	3.92 µM	6.53 µM	25.2 µM	3.53 µM	71.7 µM	2.27 µM	6.2 µM	10.9 µM	11.7%	15.3 µM	3.76 µM	200 to 202 °C	–	–	–	–	–
CCNC(=O)Nc1ccc(-c2cc(N3CCOCC3)c3nc(N4CCCCC4)sc3c2)cc1 [Compound 4, 1-Ethyl-3-(4-(4-morpholino-2-(piperidin-1-yl)benzo[d]thiazol-6-yl)phenyl)urea]	21.9 µM	6.58 µM	33.5 µM	83.5 µM	> 100 µM	14.8 µM	> 100 µM	> 100 µM	17.6%	12.2 µM	5.59 µM	228 to 231 °C	–	–	–	–	–
O=C(Nc1ccc(-c2cc(N3CCOCC3)c3nc(N4CCOCC4)sc3c2)cc1)NC1CC1 [Compound 5, 1-Cyclopropyl-3-(4-(2,4-dimorpholinobenzo[d]thiazol-6-yl)phenyl)urea]	33.1 µM	40.8 µM	> 100 µM	38.5 µM	> 100 µM	14.4 µM	> 100 µM	30.8 µM	10.2%	64.9 µM	26.9 µM	–	–	–	–	–	–
O=C(NCc1ccccc1)Nc1ccc(-c2cc(N3CCOCC3)c3nc(N4CCOCC4)sc3c2)cc1 [Compound 6, 1-Benzyl-3-(4-(2,4-dimorpholinobenzo[d]thiazol-6-yl)phenyl)urea]	24.9 µM	19.9 µM	> 100 µM	16.5 µM	> 100 µM	5.67 µM	> 100 µM	41.2 µM	15%	47 µM	8.85 µM	–	–	–	–	–	–
O=C(Nc1ccc(-c2cc(N3CCOCC3)c3nc(N4CCOCC4)sc3c2)cc1)Nc1ccc(F)cc1F [Compound 7, 1-(2,4-Difluorophenyl)-3-(4-(2,4-dimorpholinobenzo[d]thiazol-6-yl)phenyl)urea]	6.49 µM	14.2 µM	14.2 µM	28.3 µM	23 µM	3.72 µM	15.8 µM	> 100 µM	37.7%	36.6 µM	18.9 µM	244 to 247 °C	–	–	–	–	–
CNC(=O)Nc1ccc(-c2cc(N3CCOCC3)c3nc(N4CCOCC4)sc3c2)cc1 [Compound 8, 1-(4-(2,4-Dimorpholinobenzo[d]thiazol-6-yl)phenyl)-3-methylurea]	> 100 µM	11.6 µM	25.2 µM	35.7 µM	17.5 µM	7.53 µM	9.83 µM	> 100 µM	27.2%	> 100 µM	20.4 µM	274 to 278 °C	–	–	–	–	–
CN1CCN(c2ccc(NC(=O)Nc3ccc(-c4cc(N5CCOCC5)c5nc(N6CCOCC6)sc5c4)cc3)cc2)CC1 [Compound 9, 1-(4-(2,4-Dimorpholinobenzo[d]thiazol-6-yl)phenyl)-3-(4-(4-methylpiperazin-1-yl)phenyl)urea]	75.3 µM	> 100 µM	42.4 µM	> 100 µM	38.6 µM	32.7 µM	> 100 µM	82.7 µM	22.5%	37.9 µM	35.2 µM	214 to 216 °C	–	–	–	–	–
O=C(Nc1ccc(CO)cc1)Nc1ccc(-c2cc(N3CCOCC3)c3nc(N4CCOCC4)sc3c2)cc1 [Compound 10, 1-(4-(2,4-Dimorpholinobenzo[d]thiazol-6-yl)phenyl)-3-(4-(hydroxymethyl)phenyl)urea]	0.72 µM	0.75 µM	5.74 µM	1.19 µM	2.95 µM	85 µM	2.7 µM	5.39 µM	75.9%	1.78 µM	0.63 µM	–	> 50 µM	15.3 µM	> 50 µM	0.12 µM	> 50 µM
O=C(Nc1ccc(-c2cc(N3CCOCC3)c3nc(N4CCOCC4)sc3c2)cc1)Nc1cccnc1 [Compound 11, 1-(4-(2,4-Dimorpholinobenzo[d]thiazol-6-yl)phenyl)-3-(pyridin-3-yl)urea]	0.55 µM	0.36 µM	0.35 µM	33.1 µM	0.62 µM	3.48 µM	3.43 µM	1.17 µM	–	0.4 µM	2.64 µM	–	–	–	5.43 µM	–	39.8 µM
CS(=O)(=O)N1CCN(Cc2cc3nc(-c4cccc5[nH]ncc45)nc(N4CCOCC4)c3s2)CC1 [GDC-0941, 2-(1H-indazol-4-yl)-6-(4-methanesulfonyl-piperazin-1-ylmethyl)-4-morpholin-4-yl-thieno[3,2-d]pyrimidine, reference compound]	0.23 µM	0.89 µM	5.92 µM	20.7 µM	1.41 µM	6.91 µM	1.1 µM	–	–	3.62 µM	0.3 µM	–	–	–	–	–	–
